# Laboratory results from PubChem BioAssay (NCATS).
# Inconclusive results are not listed. Unless noted, calls come from the whole dose curve. Where a structure was tested more than once in an assay, its records may differ in their call. Some entries of the source have several records that differ or are many. The other results are left out here. There may be further records. The values listed for one entry repeat one measurement (runs, samples, wells, individuals or studies). Brackets tell where a record comes from. Letters hold for one entry only.
# Experiments:
# [1] = qHTS for Inhibitors of the Functional Ribonucleoprotein Complex (vRNP) of Lassa (LASV) Arenavirus: LASV Primary Screen - GLuc reporter signal (AID 1347082; calls by dose curve; tested in HEK293 reporter line; note: nearly all actives have a fitted effect of over 60% in size)
# [2] = molecular target: Nucleoprotein (Lymphocytic choriomeningitis virus (strain Armstrong)) (UniProt P09992); experiment: qHTS for Inhibitors of the Functional Ribonucleoprotein Complex (vRNP) of Lymphocytic Choriomeningitis Arenaviruses (LCMV): LCMV Primary Screen - GLuc reporter signal (AID 1347086); note: nearly all actives have a fitted effect of over 70% in size
# Chain of UniProt P09992 (P09992 whole entry, looked up): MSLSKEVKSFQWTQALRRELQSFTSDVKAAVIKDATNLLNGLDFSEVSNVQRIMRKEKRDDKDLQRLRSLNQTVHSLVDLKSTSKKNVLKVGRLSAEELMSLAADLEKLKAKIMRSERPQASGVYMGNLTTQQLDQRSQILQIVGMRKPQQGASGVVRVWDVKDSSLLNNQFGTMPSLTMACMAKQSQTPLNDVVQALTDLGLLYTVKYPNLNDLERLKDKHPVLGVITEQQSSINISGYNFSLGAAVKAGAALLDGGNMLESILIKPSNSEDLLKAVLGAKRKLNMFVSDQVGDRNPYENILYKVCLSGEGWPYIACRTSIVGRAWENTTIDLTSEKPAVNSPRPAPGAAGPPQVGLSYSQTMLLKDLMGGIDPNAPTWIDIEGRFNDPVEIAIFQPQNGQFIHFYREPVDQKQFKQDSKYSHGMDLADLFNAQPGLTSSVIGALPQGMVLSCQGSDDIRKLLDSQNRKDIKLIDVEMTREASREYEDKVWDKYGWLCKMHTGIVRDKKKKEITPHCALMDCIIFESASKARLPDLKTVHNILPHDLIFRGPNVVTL
# [3] = qHTS of pediatric cancer cell lines to identify multiple opportunities for drug repurposing: Primary screen for SK-N-MC cells (AID 1347093; active = well fitted curve in the direction sought with a large enough effect; an effect the other way counts as inactive or inconclusive)
# [4] = qHTS of pediatric cancer cell lines to identify multiple opportunities for drug repurposing: Confirmatory screen for SK-N-SH cells (AID 1347129; active = well fitted curve in the direction sought with a large enough effect; an effect the other way counts as inactive or inconclusive;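 note: cells exposed to compound for 48 h before viability read; nearly all actives have a fitted effect of over 60% in size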)
# How it was run: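 Viability after 48 h compound treatment at 37C, 500-1,000 cells/well, read as ATP luminescence with CellTiter-Glo. Primary screens used 11-point (MIPE, 0.78 nM-46 µM) or 8-point (NPC, 0.59 nM-46 µM) final concentrations; follow-up screens used 11-point dilutions.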
# Potency is the fitted concentration of half-maximal effect.
structure (smiles),measurement,setting,value
C[C@@H]1C[C@H]2[C@@H]3CCC4=CC(=O)C=C[C@]4(C)[C@@]3(Cl)[C@@H](O)C[C@]2(C)[C@@]1(OC(=O)c1ccco1)C(=O)CCl,Potency,[1],inactive [sample A] and active: 17.2 µM [sample B]
CCCCC(CC)COC(=O)C(C#N)=C(c1ccccc1)c1ccccc1 (stereo not given),Potency,[2],active: 13.7 µM [sample A] and inactive [sample B]
O=C(Nc1ccc([N+](=O)[O-])cc1Cl)c1cc(Cl)ccc1O,Potency,[2],active: 2 µM [sample A] and inactive [sample B] and active: 17.2 µM [sample C]
COC(=O)C1=CCCN(C)C1,Potency,[3],active: 11.8 µM [sample A] and inactive [sample B]
C[C@@H]1C[C@@H]([C@H](O)CC2CC(=O)NC(=O)C2)C(=O)[C@@H](C)C1,Potency,[4],inactive [sample A] and active: 4.18 µM [sample B]
